This is an account of results in PubChem BioAssay (NCI).

“And” between values parts separate entries of the source, which are not always exact repeats. Identical values can stand only once.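 Test compounds were applied to cells in 96-well plates for 48 hours at 5 doses. The concentration for 50% growth inhibition is given as GI50. At the TGI there is no net growth.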 Bounds are passed on as bounds.

In the assay the test system is NCI-H322M lung. In words: growth of human tumour cells (NCI), 48 h.
As for `N=C(N)c1ccc(-c2ccc(-c3ccc(Cl)cc3)s2)s1`, the GI50 is 1.63 µM and the TGI was determined as 3.11 µM.
As to `COc1ccc(N2CCN(CC(=O)N3CCN(c4nnc(-c5ccc(Cl)cc5)c(-c5ccc(Cl)cc5)n4)CC3)CC2)cc1`, the GI50 is > 100 µM and the TGI was > 100 µM.
As to `N#Cc1ccc(NC(=NCC(=O)O)Nc2ccc3ccccc3c2)cc1`, the TGI was > 10 µM.
In the case of `N#C/C(=C/NC(=S)Nc1ccc(S(N)(=O)=O)cc1)C(N)=O`, the TGI was > 100 µM.
Molecule `Clc1ccc(CCN2CCN(CCCc3ccccc3)CC2)cc1Cl` returned a TGI of 33.1 µM.
For the molecule `N#Cc1c(-c2ccc(Cl)cc2)n([O-])c2ccccc2[n+]1=O`, the GI50 is 24.1 µM and the TGI was determined as 47.6 µM.
With `Cc1nn(C(=O)CC(=O)Nc2ccccc2Cl)c(C)c1N=Nc1ccccc1Cl`, the TGI is > 100 µM.
For `COc1ccc(/C=N/NC(=O)c2ccccc2Nc2ccccc2C(=O)N/N=C/c2ccc(OC)c(OC)c2)cc1OC`, the TGI was > 100 µM.
On to `CC(=S)NC1C(Oc2ccc3c(C)cc(=O)oc3c2)OC(CO)C(O)C1O` (stereo unspecified), for which the TGI is > 100 µM.
For the molecule `CC/C(=C(\c1ccccc1)c1ccc(OCC[N+](C)(C)C)cc1)c1ccccc1`, the TGI is 32.5 µM.
On to `O=C1N[C@@H](c2c[nH]c3ccc(Br)cc23)C(=O)N[C@H]1c1c[nH]c2ccc(Br)cc12`, for which the TGI is 26.1 µM.
Take `CC1=C2CC3=C(C)C(=O)O[C@H]3C[C@@H](C)[C@@H]2CC1`: the TGI is > 100 µM.
With `C=CC(C)(C)c1cc([C@@H]2COc3cc(O)ccc3C2=O)c(O)c(OC)c1OC`, the TGI is 71.2 µM.
Consider `CCCCCCCCCCCCCCCCCc1nc(C#N)c(N)o1`, for which the TGI is > 100 µM.
Consider `CC(=O)NC1C(=O)CC(c2ccccc2)N(C)C1c1ccccc1` (stereo unspecified), for which the TGI was > 100 µM.
For the molecule `C[N+](C)([O-])Cc1cccc(NC(=O)c2ccc(C(=O)Nc3cccc(C[N+](C)(C)[O-])c3)cc2)c1`, the TGI was > 100 µM.
Same read-out and setting: the value for `Cc1ccc(-n2cc(-c3ccc(Cl)cc3)c3c(NNC(=S)NCc4ccccc4)ncnc32)cc1` was > 100 µM; that for `COc1cc(/C=C/C(=O)C(C)(C)C)cc(OC)c1OC` was > 100 µM.
Same read-out and setting: the value for `CCOC(=O)C1C(=O)C=C(c2cc(C)ccc2O)CC1c1cccc(Br)c1` (stereo unspecified) was 71.5 µM; that for `CCC1OC(=O)C(C)C(OC2CC(C)(O)C(O)C(C)O2)C(C)C(O)C(C)(O)CC(C)C(=O)C(C)C(O)C1C` (stereo unspecified) was > 300 µM.
Consider `O=C(CCc1nnc2s/c(=C\c3ccc(Cl)cc3Cl)c(=O)n12)Nc1cc(Cl)c(Cl)cc1Cl`, for which the GI50 was > 100 µM and the TGI is > 100 µM.
For `CN(C)CCCn1c2c(c3ccncc3c1=O)C(=O)c1ccccc1-2`, the GI50 was 2.82 µM and the TGI was determined as 24.3 µM.
`C#Cc1cccc(NC(=O)Nc2cccc(NC(=O)CCl)c2)c1`: the GI50 was > 82.5 µM and the TGI is > 82.5 µM.
For the molecule `CCC1(CC)C(=O)N(C(=O)c2ccc(Cl)cc2)N(C(=O)c2ccccc2Cl)C1=O`, the TGI is > 100 µM.
As for `O=C(CSCC(=O)N/N=C\c1cc(Br)cc(Br)c1O)N/N=C\c1cc(Br)cc(Br)c1O`, the TGI was determined as 38.7 µM.
As to `COC(=O)[C@@H](C)C[C@H](Cc1ccccc1)NC(=O)c1cccc([C@@H](C[C@H](C(C)C)N(C)C(=O)[C@@H](NC(=O)[C@H]2CCCCN2C)C(C)C)OC(C)=O)n1`, the GI50 was 0.00581 µM and the TGI was > 16.7 µM.
On to `COC(=O)c1cc(CNCCc2c[nH]c3ccccc23)on1`, for which the TGI was > 100 µM.
`CN(C)/C=C/c1ccnc2c1C(=O)c1ccccc1C2=O` returned a TGI of 29.1 µM.
`CCCCCCn1c(=N)n(CC(O)COc2cccc(C)c2)c2ccccc21` (stereo unspecified): the GI50 was 4.42 µM and the TGI is 15.4 µM.
On to `CC(C)(O)C1CC(=O)C(C)(C2C(O)CC3(C)C4CC=C5C(CCC(O)C5(C)C)C4(C)C(=O)CC23C)O1` (stereo unspecified), for which the TGI is > 100 µM.
On the same count and under the same terms, the value for `COC[C@H](Cc1ccccc1)N=Cc1ccccc1` was > 100 µM.
As for `Cc1cc(N2CCOCC2)nc(N(CCNc2ccnc3cc(Cl)ccc23)Cc2cccs2)n1`, the GI50 was 3.04 µM and the TGI came to 11.1 µM.
`O=C(Cl)c1cc([N+](=O)[O-])cc([N+](=O)[O-])c1`: the TGI is > 100 µM.
With `Nc1c2ccccc2nc2ccc(C(=O)Nc3ccc(S(N)(=O)=O)cc3)cc12`, the TGI is > 100 µM.
On to `Cc1ccc(S(=O)(=O)NC(CCCCN)C(=O)CCl)cc1` (stereo unspecified), for which the GI50 is > 100 µM and the TGI was > 100 µM.
Regarding `O=C(/C=C/CN1CCCCC1)Nc1cc2c(Nc3ccc(F)c(Cl)c3F)ncnc2cc1OCCOC(F)F`, the GI50 was < 0.01 µM and the TGI was found to be 1.56 µM.
In the case of `O=c1n(CCO)nc2n1CCCN2`, the TGI was > 100 µM.
In the case of `CCN(CC)CCCC(C)NC(=S)N/N=C(\C)c1ccccn1` (stereo unspecified), the GI50 is 3.33 µM and the TGI is > 100 µM.
As for `O=C1C2=C(Nc3cc([N+](=O)[O-])ccc3N2)OC1c1c[nH]c2ccc(COc3ccccc3)cc12` (stereo unspecified), the TGI is > 100 µM.
As for `c1ccc(C2(c3cc4ccccc4[nH]3)OCCO2)cc1`, the TGI is > 100 µM.
In the case of `Cc1cc(C)n(CN(Cn2nc(C)cc2C)c2ccc(N(Cn3nc(C)cc3C)Cn3nc(C)cc3C)cc2)n1`, the TGI was determined as 53.9 µM.
Take `CC1SC(c2cccc(Oc3ccccc3)c2)N(CCc2cccs2)C1=O` (stereo unspecified): the GI50 is 1.56 µM and the TGI turned out to be 5.06 µM.
As to `CN1C(=N\S(=O)(=O)c2ccc(Cl)cc2)/C(=N/N=P(c2ccccc2)(c2ccccc2)c2ccccc2)c2ccccc21`, the TGI was > 100 µM.
For `Clc1ccc(CCn2ccc3ccccc32)c(Cl)c1`, the TGI is > 100 µM.
For the molecule `COc1ccc(C2CC(c3ccc(OC)c(OC)c3)=NN2C(=O)c2cc(OC)c(OC)c(OC)c2)cc1` (stereo unspecified), the GI50 is > 21.5 µM and the TGI was > 100 µM.
As for `Cc1ccc(CCNC(=S)SCC(NC(=O)CCC(N)C(=O)O)C(=O)NCC(=O)O)cc1` (stereo unspecified), the TGI was 11.3 µM.
The same measure, in the same setting: the value for `CCCCCC1C2C(=O)NC(=O)C1C(=O)NC2=O` (stereo unspecified) was > 100 µM.
Regarding `COc1cc2c(cc1Nc1nc(Nc3ccsc3C(N)=O)c3cc[nH]c3n1)N(C(=O)CN(C)C)CCC2`, the GI50 was 0.773 µM and the TGI came to 5.9 µM.
Turning to `Nc1n[nH]c(=O)c2c1c(Br)cn2C1OC(CO)C(O)C1O` (stereo unspecified), the TGI was > 100 µM.
As for `O=S(O)CCCSSCCCCSSCCCS(=O)O`, the TGI was > 100 µM.
In the case of `Nc1nc(NC(=O)C2=NS(=O)(=O)c3cc(S(N)(=O)=O)c(Cl)cc3N2)n[nH]1`, the TGI was > 100 µM.
With `CC(C)(C)OC(=O)N1CC(COS(C)(=O)=O)c2ccc(O)cc21` (stereo unspecified), the TGI came out at 7.85 µM.
Take `COC[C@@H](N=Cc1ccc(OC)cc1)C(C)C`: the TGI was > 100 µM.
For the molecule `O=C(c1ccccc1)c1cc(-c2ccccc2)c(-c2ccccc2)[nH]c(=O)c1=O`, the TGI was > 100 µM.
Take `COc1ccccc1C1C(Cl)C(=O)N1NC(=O)Cc1ccccc1` (stereo unspecified): the TGI is > 100 µM.
On to `C[CH2][Ge]1([CH2]C)[CH2]CC2(CCN(CCCN(C)C)C2)C[CH2]1`, for which the GI50 was 2.04 µM and 1.91 µM; the TGI is 4.37 µM and 4.16 µM.
`COc1cc2c(cc1C)NC(=O)/C2=C/c1c(Cl)n(C)c2ccccc12` returned a TGI of 27.5 µM.
Take `COC(=O)c1c(OC(=O)c2ccccc2)noc1CC(=O)OC1C=CCCC1` (stereo unspecified): the TGI is > 100 µM.
In turn, `COc1cccc2c(NNc3ccc(Cl)cc3)c3ccc([N+](=O)[O-])cc3nc12` gave a TGI of 50.8 µM.
Take `O=C1OC2C(O)COC2(OCc2c[nH]c3ccccc23)C1O` (stereo unspecified) (tested in a mixture with another compound): the TGI is > 100 µM.
For the molecule `Cc1ccc(S(=O)(=O)c2ccccn2)cc1`, the TGI is > 100 µM.
Take `COc1cc(C2C3=C(COC3=O)N(CCO)c3cc4c(cc32)CCC4)cc(OC)c1OC` (stereo unspecified): the GI50 was 0.253 µM and the TGI was > 32.5 µM.
Regarding `COCC(O)CN1C(N)=NC(O)C1O` (stereo unspecified), the TGI is > 100 µM.
As to `COc1cc2c(c(OC)c1OC)-c1c(c3ccc([N+](=O)[O-])cc3c(=O)n1CCCN=[N+]=[N-])C2=O`, the GI50 was 25.2 µM and the TGI turned out to be 81.6 µM.
As for `O=C1NC(N2CCCC(CO)C2)=N/C1=C\c1ccc(O)cc1` (stereo unspecified), the TGI is > 100 µM.
Consider `O=c1[nH]/c(=C/c2ccc(OCc3ccccc3)cn2)c(=O)[nH]/c1=C/c1cccnc1`, for which the TGI was > 100 µM.
The molecule `Cc1ccc(SCN2CCCCC2)cc1` (tested in a mixture with another compound) registered a TGI of 76.1 µM.
Regarding `CCc1cccc(C(C)C)c1C1C(=O)C(=O)N(c2nc3ccccc3s2)C(=O)C1=O`, the TGI was > 100 µM.
In the case of `O=C(O)CCCCCNC(=O)CCC(CN(CC(=O)OCc1ccccc1)CC(=O)OCc1ccccc1)N(CC(=O)OCc1ccccc1)CC(=O)OCc1ccccc1` (stereo unspecified), the TGI was found to be 29.7 µM.
On to `COc1cc(OC)c(-c2oc3ccccc3c(=O)c2O)c(OC)c1`, for which the TGI was > 100 µM.
For `CC(C)(C)OC(=O)NCCNC(=O)OCc1ccccc1`, the TGI is > 100 µM.
Consider `CC(=O)CC(=O)Nn1c(-c2cccs2)nc2ccc(I)cc2c1=O`, for which the TGI was > 100 µM.
As to `CC(C)Oc1c(O)c2c3c(oc(=O)n3C=CC2c2ccccc2F)c1OC(C)C` (stereo unspecified), the TGI is > 100 µM.
As for `CN(C)CCCn1c2c(c3ccc([N+](=O)[O-])cc3c1=O)C(=O)c1ccccc1-2`, the GI50 was > 100 µM and the TGI was > 100 µM.
With `O=C1c2cccc3cc4ccccc4c(c23)C(=O)N1CCCNCCNCCCN1C(=O)c2cccc3cc4ccccc4c(c23)C1=O`, the TGI was 1.62 µM.
On to `CCCCc1ccc(C(N)=O)nc1`, for which the GI50 was > 100 µM and the TGI is > 100 µM.
As to `CCC(c1ccc(N(C)C)cc1)C1NC(=S)NC1=O` (stereo unspecified), the TGI is > 100 µM.
For the molecule `COc1c(C)cnc(Cn2cnc3c(Cl)nc(N)nc32)c1C`, the GI50 was 0.839 µM and the TGI was > 100 µM.
On to `O=C(CN1C(=O)c2ccccc2C1=O)NC1(C(=O)O)CCCC1`, for which the TGI was > 100 µM.
Still for that read-out and setting: the value for `COC(=O)C1CCC2(CC1)NC(=O)NC2=O` (stereo unspecified) was > 100 µM; that for `O=[N+]([O-])c1ccc(-c2ccc(C3=Nn4c(nnc4-c4ccc(Cl)cc4)SC3)o2)cc1` was > 100 µM; that for `Cc1[nH]c(=O)nc2c1C(=O)N(C(C)C)C(NC(C)C)S2` (stereo unspecified) was > 100 µM.
Same read-out and setting: the value for `Cc1ccc(-c2c(C#N)c(O)n(NS(=O)(=O)c3ccccc3)c(=O)c2C#N)cc1` was > 100 µM.
Still for that read-out and setting: the value for `Nc1nc(N)c2nn(-c3ccc(C(=O)O)cc3)nc2n1` was > 100 µM; that for `CC(C)(C)C(=O)Cc1cc2c(cc1C(=O)O)S(=O)(=O)NC(C(C)(C)C)=C2` was > 100 µM.
